Measured values: paper PMC12136788
Some of the results follow.

B1: ENSG00000107863:be:win_1951|CDS|ENSG00000107863|bound_else_gene|NA|bound_elsewhere_windowed (ssRNA)
RNA: GGGAGUUCUACAGUCCGACGAUCCCAGUAAAUCACUUGCAUCAGAACAGUCUGUUGAAUCAGCAGACAUGGGUAAGGACUGACAGUGCCCCCGAUCAGCAAGUGGAGACUGGGAAAUCCCCCUCUUUAUCUGGAGCCUCUGCCCAACAGAGGAUUGAGCAUCA
B2: chr15:73714018:73714119:+|3pUTR|ENSG00000103855|msi1|total|mutant (ssRNA)
RNA: GGGAGUUCUACAGUCCGACGAUCCCCACCCAUAAUUCUUACCCAGAGCAUGGGGUUGGGGCGGAAACCUGGAGAGAGGGACACCGCCCCUCGCCACGGCCCGAGAAUCUGGUGGUGUCCAAAAUGUCUGUCCAGGUGUGGGCACAACAGAGGAUUGAGCAUCA
B3: ENSG00000182541:stop:overlap|stop_codon|ENSG00000182541|stop_codon|NA|stop_codon (ssRNA)
RNA: GGGAGUUCUACAGUCCGACGAUCUGGAGGAGUUGGACCACACUGUGAGCAUGCAGUACGGCCUGACCCGGGACUCACCUCCCUAGCCCUGGCCCAGCCCCCUGCAGGGGGGUGUUCUACAGCCAGCAUUGCCCCUCUGUGCCCCAACAGAGGAUUGAGCAUCA
B4: ENSG00000120802:stop:overlap|stop_codon|ENSG00000120802|stop_codon|NA|stop_codon (ssRNA)
RNA: GGGAGUUCUACAGUCCGACGAUCGUGGAACAUUAUUUGGAGGAGAAGUAUGCAAAGUAAUUAAAAAGCGUGGAAAUAAACACUAGUAAAAUUAAGGACAAAAAGACAUCUAUCUUAUCUUUCAGGUACUUUAUGCCAACAUUUCAACAGAGGAUUGAGCAUCA
B5: chr12:285015:285116:-|3pUTR|ENSG00000073614|msi1|total|mutant (ssRNA)
RNA: GGGAGUUCUACAGUCCGACGAUCUAACAGGGCAUACCGGAUGUGGCUUUUGUCCAGCUGACCGCCGUCCGAGGCUUACAACUCCGGAGCAGCACCAACUGAAGGUGCUAAUUGCUUGGAUCUCCUUCAUUGGGACCGUUGGAGCAACAGAGGAUUGAGCAUCA
B6: chr8:23843870:23844003:-|3pUTR|ENSG00000159167|msi1|FALSE|unique (ssRNA)
RNA: GGGAGUUCUACAGUCCGACGAUCAAUUCCAGAGGACUCUGCUUAAACAAAGCAGUAUAUAAUAACUUUAUUGCAUAUAGAUUUAGUUUUGUAACUUAGCUUUAUUUUUCUUUUCCUGGGAAUGGAAUAACUAUCUCACUUCCACAACAGAGGAUUGAGCAUCA
B7: chr8:96333981:96334082:+|3pUTR|ENSG00000156471|msi1|FALSE|bound_elsewhere (ssRNA)
RNA: GGGAGUUCUACAGUCCGACGAUCUUAAGUUCAGGCCACUUUUCUGUCUUUUAUUUGGUUACUGUUGUUAUUUGUUUUUAAGUUAGGAUGCUUUUUAACAGCCUUUAGAAGCCGCUGCUGAAAUUGAUACUGGGGGAAGGGUUCCAACAGAGGAUUGAGCAUCA
B8: chr5:136988535:136988636:-|CDS|ENSG00000152377|msi1|FALSE|unique (ssRNA)
RNA: GGGAGUUCUACAGUCCGACGAUCGGAAAGCAUCAGGCUUGGUGGCAGCUGAGAUAUGCCUUUUGUUUGGCAGGGUUUGACACUAGCAUCCUGCCCAUCUGCAAGGACUCCCUGGGCUGGAUGUUCAACAAGUUGGACAUGAACCAACAGAGGAUUGAGCAUCA
B9: ENSG00000107863:be:win_1801|CDS|ENSG00000107863|bound_else_gene|NA|bound_elsewhere_windowed (ssRNA)
RNA: GGGAGUUCUACAGUCCGACGAUCACUACUUGUGGAAUGUCACUGCCUCGGGGUAUUUCACAAGACAGGUCACCUCUUGUGAAAGUCCGAAGUAAUUCUCUGAAAGCUCCUUCCACGCAUGUCACAAAACCAUCAUUUAGCCAGCAACAGAGGAUUGAGCAUCA
B10: chr1:20652278:20652361:-|3pUTR|ENSG00000244038|msi1_unk|total|mutant (ssRNA)
RNA: GGGAGUUCUACAGUCCGACGAUCGACUGAGGGGCCCGAGCCCUCUCCGCACAGCGUGGAGACGGGGCAAGGAGGGGGGUUAUCCGGAUUGGUGGUUUUGUUUUGCUUUGUUUAAAGCCGUGGGAAAAUGGCACAACUUUACCUCAACAGAGGAUUGAGCAUCA
B11: chr3:130733575:130733676:-|CDS|ENSG00000196455|msi1|total|mutant (ssRNA)
RNA: GGGAGUUCUACAGUCCGACGAUCCGUCAAAGAGGUUCCUCGUAAUGAUAUCAAUAUUUAUCCGGAAUACAUUCUGCCAGGCACCGCCCACUCCGCCCAAGAUGAUGCUACUAUCGUCCGACCCGCCUAUGCUGGUAAGAGUUUCAACAGAGGAUUGAGCAUCA
B12: chr1:42926584:42926685:-|3pUTR|ENSG00000117394|msi1|total|mutant (ssRNA)
RNA: GGGAGUUCUACAGUCCGACGAUCGCCUGAGGGUGGAGACUAAGCCCUGUCGAGACACUUGCCUUCUUCACCCAGCUAAUCUGCCGGGCUGGACCUAUGUCCUAAGGACACACUAAUCGAACUAUGAACUACAAAGCUUCUAUCCAACAGAGGAUUGAGCAUCA
B13: chr1:248623556:248626177:-|three_prime_utr|ENSG00000279301|control|control|control (ssRNA)
RNA: GGGAGUUCUACAGUCCGACGAUCUGCAGAGAUCUUUCAGUGAAGUAUCAAAAAUGGUUUAUUAUGAAGUUAAAUAAUUUAUCUAGUCUUUUUAUUUAGGGAAGAAAAACCCCAAAUAUUAGAGUUCACAGCAACCUUUCACUCCAACAGAGGAUUGAGCAUCA
B14: chrX:106032434:106033499:-|three_prime_utr|ENSG00000123561|control|control|control (ssRNA)
RNA: GGGAGUUCUACAGUCCGACGAUCGGAAAAAGGCCAUUGGCUAAUUGCACGUGUGUAUUGCAAUGGGAAAUAAAUAAAUAAUAUAGCCUGGUGUGAUUGAUGUGAGCUUGGACUUGCAUUCCCUUAUGAUGGGAUGAAGAUUGACAACAGAGGAUUGAGCAUCA

Target: MSI1 full-length (mouse, UniProt Q61474 1-362)
Experiment: nsRBNS (natural sequence RNA bind-n-seq); RBNS binding buffer (assumed for nsRBNS): 25 mM Tris pH 7.5, 150 mM KCl, 3 mM MgCl2, 0.01% Triton X-100, 500 ug/ml BSA, 20 U/ml SUPERase-In, 4 C; UNK is unkempt and MSI1 is Musashi-1; names of the RNAs are library labels; protein concentration not given here; high values mean tight binding

UniProt Q61474, sequence (Q61474 whole entry): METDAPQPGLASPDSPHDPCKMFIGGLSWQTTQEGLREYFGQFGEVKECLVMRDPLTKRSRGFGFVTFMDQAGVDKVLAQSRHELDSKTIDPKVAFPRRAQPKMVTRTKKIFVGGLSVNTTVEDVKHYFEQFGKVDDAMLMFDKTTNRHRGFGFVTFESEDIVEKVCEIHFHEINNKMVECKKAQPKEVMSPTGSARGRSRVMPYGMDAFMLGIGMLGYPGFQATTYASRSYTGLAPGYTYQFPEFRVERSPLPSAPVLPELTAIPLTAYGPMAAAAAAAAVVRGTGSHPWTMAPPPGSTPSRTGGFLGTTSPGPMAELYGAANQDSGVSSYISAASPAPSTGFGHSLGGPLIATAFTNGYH

Binder | binding signal
B1 | 0.425 enrichment R
B2 | 0.222 enrichment R
B3 | 0.577 enrichment R
B4 | 1.57 enrichment R
B5 | 0.508 enrichment R
B6 | 7.3 enrichment R
B7 | 1.79 enrichment R
B8 | 0.495 enrichment R
B9 | 0.533 enrichment R
B10 | 0.383 enrichment R
B11 | 0.583 enrichment R
B12 | 0.476 enrichment R
B13 | 1.73 enrichment R
B14 | 0.443 enrichment R
